The structures appear in SMILES notation. Some of the results follow.

In one experiment the test system is HSkMC. The experiment is described as follows: cytotoxicity call (relative viability < 0.9). As to conditions: 10 µM.
In a further experiment the test system is HepG2. The experiment is described as follows: cytotoxicity call (relative viability < 0.9). Particulars: 10 µM.
A further experiment has as its system S. aureus RN4220. The experiment is described as follows: growth inhibition call (relative growth <= 0.2). As to conditions: 50 µM.

Consider `Cc1ccc(S(=O)(=O)N(C)C[C@H]2Oc3cc(C#Cc4ccncc4)ccc3S(=O)(=O)N([C@H](C)CO)C[C@@H]2C)cc1`, for which the cytotoxicity call in the experiment with HSkMC was “inactive”. In addition, the cytotoxicity call in the experiment on HepG2 was “active”. In addition, the growth inhibition call in the experiment with S. aureus RN4220 was “inactive”.
`COc1cccc(NC(=O)N(C)C[C@@H]2Oc3cc(C#Cc4ccncc4)ccc3S(=O)(=O)N([C@H](C)CO)C[C@H]2C)c1`: in the experiment on HSkMC, the cytotoxicity call is “inactive”. For the same compound, in the experiment with HepG2, the cytotoxicity call is “active”. Also, the growth inhibition call with S. aureus RN4220 was “inactive”.
Take `C[C@@H]1CN([C@H](C)CO)C(=O)c2cc(NC(=O)Nc3cccc4ccccc34)ccc2O[C@@H]1CN(C)S(=O)(=O)c1ccc(Cl)cc1`: the cytotoxicity call in the experiment with HSkMC and in the experiment with HepG2 was “inactive” in each case. Also, the growth inhibition call in the experiment with S. aureus RN4220 was “inactive”.
`C[C@H](NC(=O)N(C)C[C@H]1OCc2ccccc2-c2c(n(C)c3ccccc23)C(=O)N([C@@H](C)CO)C[C@H]1C)c1ccccc1`: the cytotoxicity call in the experiment on HSkMC and in the experiment on HepG2 was “inactive” throughout. In addition, the growth inhibition call with S. aureus RN4220 is “inactive”.
As to `Cc1noc(C)c1S(=O)(=O)Nc1ccc2c(c1)CC(=O)N([C@@H](C)CO)C[C@H](C)[C@@H](CN(C)S(=O)(=O)c1ccccc1)O2`, the cytotoxicity call in the experiment with HSkMC and in the experiment on HepG2 was “inactive” each time. Also, the growth inhibition call in the experiment on S. aureus RN4220 is “inactive”.
In the case of `C[C@H](CO)N1C[C@H](C)[C@H](CN(C)S(=O)(=O)c2ccccc2)Oc2ccc(NS(=O)(=O)c3ccc(F)cc3)cc2C1=O`, the cytotoxicity call with HSkMC and with HepG2 was “inactive” each time. The growth inhibition call in the experiment on S. aureus RN4220 was “inactive”.
Turning to `CCOc1nc2c(N)ncnc2n1CC`, the cytotoxicity call in the experiment with HSkMC and with HepG2 was “inactive” each time. Besides, the growth inhibition call in the experiment on S. aureus RN4220 is “inactive”.
As to `O=C(NOCCO)c1cc(CN2OCCCC2=O)c(F)c(F)c1Nc1ccc(I)cc1F`, the cytotoxicity call in the experiment on HSkMC and with HepG2 was “inactive” throughout. In addition, the growth inhibition call in the experiment on S. aureus RN4220 is “inactive”.
As to `C[C@H]1CCCCO[C@@H](CN(C)Cc2ccc(C(=O)O)cc2)[C@@H](C)CN([C@@H](C)CO)C(=O)c2cc(NS(=O)(=O)c3ccc(F)cc3)ccc2O1`, the cytotoxicity call in the experiment on HSkMC (human skeletal muscle cells) and in the experiment on HepG2 was “inactive” each time. Besides, the growth inhibition call in the experiment with S. aureus RN4220 was “inactive”.

The values are drawn from the antibiotic and cytotoxicity screens of Wong et al. (2023).
